About 64,000 (15%) of roughly 420,000 compounds were called active. This list was built around the results that the source calls inconclusive (neither active nor inactive); the mix of calls is not that of the screen. The call rests on the fitted dose curve; in most records, active means well fitted inhibition curve with a large enough effect; inconclusive means small, poorly fitted or top-dose-only effect; inactive means flat fitted curve, though single readings scatter. Potencies of inconclusive entries are left out as doubtful fits.
Assay: qHTS for Inhibitors of human tyrosyl-DNA phosphodiesterase 1 (TDP1): qHTS in cells in absence of CPT; further: nearly all actives have a fitted effect of over 55% in size
Conditions: DT40 Tdp1-/- hTDP1 cells, no CPT, ATP luminescence, 48 h; activity change, negative = growth inhibition: at 46.2 µM (top of the series) unless noted
Summary of the method: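 Compound effects on proliferation are scored in DT40 Tdp1-/-;hTDP1 cells in the absence of CPT. ATP levels (CellTiter-Glo luminescence) are recorded after a ≥48 hr, 37 °C incubation.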
On the % scale 0 is the no-effect control and ±100 the full control effect; potency means the concentration at half of the fitted maximal effect; tags describe the fitted curve by direction and shape.

SMILES | activity change, negative = growth inhibition | Potency
Fc1ccc(-c2noc(-c3ccc4c(c3)CCO4)n2)cc1 | inactive: -23.8% | –
CCCC(=O)Nc1cc(-c2nn(C)c(=O)c3ccccc23)ccc1OC | – | inconclusive [inhibitor, full curve, poor fit]
COCCCNC(=S)N/N=C/c1cccc(OC)c1O | – | active: 0.651 µM
CCn1c2ccccc2c2cc(/C=C3\C=Cc4ccccc43)ccc21 | – | inconclusive [inhibitor, partial curve, poor fit]
CCCCNC(=O)CN1C(=O)CSc2ccc(S(=O)(=O)N3CCOCC3)cc21 | inactive: -4.02% | –
CCOc1ccccc1NC(=O)C12CC3CC(C1)CC(c1ccc(C)cc1)(C3)C2 | – | inconclusive [inhibitor, single point]
Cc1ccc(C(=O)COc2cccc(NC(=O)c3ccco3)c2)cc1 | – | active: 20.6 µM
O=C(Nc1ccc(Br)cc1)c1cccc(N2C(=O)C3C4CCC(C4)C3C2=O)c1 (stereo not given) | – | active: 29.1 µM
O=C1c2oc3ccccc3c(=O)c2C(c2cccc(Cl)c2)N1c1ccccn1 (stereo not given) | – | inconclusive [inhibitor, partial curve, poor fit]
Cc1cccc(C(=O)OCC(=O)Nc2ccc3c(c2)OCCO3)c1 | – | inconclusive [inhibitor, single point]
CCN(C[C@H]1N[C@@](CC)(C(=O)OC)[C@H]2C(=O)N(Cc3ccccc3)C(=O)[C@@H]12)S(=O)(=O)c1ccc(C(F)(F)F)cc1 | – | active: 18.4 µM
Cc1ccc2oc(=O)c3cc(C(=O)NCCN4CCc5ccccc5C4)sc3c2c1 | – | inconclusive [inhibitor, single point]
CCCn1nc(C(=O)N2CCN(S(=O)(=O)c3ccc(C)c(C)c3)CC2)c2ccccc2c1=O | – | inconclusive [inhibitor, single point]
CCOc1ccc(N/C(N)=N/c2nc(C)cc(C)n2)cc1 | – | active: 25.9 µM
Cc1ccc(NC(=S)N2CCN(c3ccccc3F)CC2)c(C)c1 | – | inconclusive [inhibitor, partial curve, poor fit]
Cc1ccc(S(=O)(=O)N/N=C\C=C\c2ccccc2)cc1 | inactive: -0.637% | –
CC1=C(C(=O)Nc2ccc(C)cc2C)C(c2ccccc2F)n2nc(SCC(=O)c3ccc(C)cc3)nc2N1 (stereo not given) | – | active: 14.6 µM
Cn1ccnc1C(O)c1ccccc1 (stereo not given) | – | inconclusive [inhibitor, partial curve]
COC(=O)C(C)(C)NC(=O)c1cccs1 | inactive: -17.5% | –
CCN1CCc2c(sc(NC(=S)NC(=O)c3ccc(Cl)cc3)c2C(N)=O)C1 | – | inconclusive [inhibitor, single point]

— PubChem BioAssay AID686978 (National Center for Advancing Translational Sciences (NCATS), 2013)
